Over roughly 33,000 sequences, “E-score (-0.5 to 0.5)” has its median near -0.054; the highest 2% begin near 0.35. Some of the results follow.
The sequences below were run against T1, Stb5 (UniProt P38699) (assay: PBM E-score (8-mer binding enrichment) (E-score (-0.5 to 0.5)); higher = stronger / more preferred TF binding; most listed sequences are background and not binding sites). Conditions: protein concentration: 200 nM; construct: GST-full length.
T1 sequence: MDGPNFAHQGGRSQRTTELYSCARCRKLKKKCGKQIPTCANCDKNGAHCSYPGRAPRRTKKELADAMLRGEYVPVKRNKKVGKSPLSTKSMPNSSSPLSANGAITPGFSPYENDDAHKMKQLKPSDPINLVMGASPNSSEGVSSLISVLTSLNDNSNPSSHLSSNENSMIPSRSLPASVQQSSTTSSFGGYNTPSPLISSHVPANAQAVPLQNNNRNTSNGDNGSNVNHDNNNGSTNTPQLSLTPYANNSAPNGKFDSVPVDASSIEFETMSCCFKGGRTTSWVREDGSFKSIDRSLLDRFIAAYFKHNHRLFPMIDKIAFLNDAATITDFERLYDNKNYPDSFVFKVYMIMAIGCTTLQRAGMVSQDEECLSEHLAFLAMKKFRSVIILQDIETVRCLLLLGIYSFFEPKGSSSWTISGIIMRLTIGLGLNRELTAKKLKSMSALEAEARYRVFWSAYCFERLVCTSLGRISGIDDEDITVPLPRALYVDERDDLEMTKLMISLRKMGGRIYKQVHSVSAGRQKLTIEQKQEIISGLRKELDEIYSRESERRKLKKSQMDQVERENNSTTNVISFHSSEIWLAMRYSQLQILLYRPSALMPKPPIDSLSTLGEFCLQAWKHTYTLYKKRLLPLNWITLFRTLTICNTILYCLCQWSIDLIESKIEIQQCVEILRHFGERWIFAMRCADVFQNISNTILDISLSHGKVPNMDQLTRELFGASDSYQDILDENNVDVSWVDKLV
In short: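 E-scores (a modified Wilcoxon-Mann-Whitney statistic) were assigned by the Universal PBM Analysis Suite to every ungapped eight-base word pooled with its reverse complement. The input came from universal all-10-mer Agilent arrays made double-stranded by primer extension and probed with GST-tagged yeast transcription factors at about 100-200 nM. Fluorescent anti-GST detected bound protein, and masliner normalised the scans.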

Row | Sequence | PBM E-score
1 | ATCCAGTA | -0.123
2 | GCATGCCC | 0.12
3 | AAAAGGAG | -0.145
4 | GGGTTGAC | 0.0256
5 | CCTGACTC | -0.153
6 | CATCTTCA | -0.148
7 | CAGAGATG | -0.119
8 | GCCCATCA | -0.157
9 | AGACCTTC | -0.109
10 | AACTGAAA | -0.16
11 | CTCTCGCA | -0.257
12 | CCCAAGAC | -0.163
13 | GCGCCCGC | 0.154
14 | GCGATCCC | -0.095
15 | CATCGGTC | 0.312
16 | CCAGCGCG | -0.0713
17 | GCAAGAAC | -0.104
18 | TCAATTGA | -0.226
19 | TACGCATA | -0.129
20 | CTTGTCGC | 0.0315
21 | TATCGAAA | 0.0537
22 | ACTGAGAT | -0.343
23 | AGGGAACA | -0.0537
24 | AACTAAAG | -0.12
25 | CTTGGGCC | 0.0399

Row | Sequence | PBM E-score
26 | AAATATGG | -0.0109
27 | ATCAAGGG | -0.182
28 | CAGGATTA | -0.062
29 | GTATCAAC | 0.145
30 | ACGACGAT | -0.123
31 | CGAGCACC | -0.0416
32 | CAAAAATA | 0.064
33 | GGTTGTAC | 0.106
34 | GTCGAAAC | -0.112
35 | ATGAACGC | -0.0754
36 | GCCACGCC | -0.0483
37 | ATAGCGTC | -0.0559
38 | CTACAGGC | -0.0338
39 | CACTTCGA | -0.145
40 | ACATGTTG | -0.0674
41 | CCAAATCC | -0.109
42 | ACATTTCC | -0.0628
43 | GCGAGGGA | -0.17
44 | GATTCAGC | -0.0886
45 | TGAAGAAA | -0.121
46 | GAAGACAA | -0.0999
47 | CAATAATG | 0.151
48 | TCCTATAA | 0.0414
49 | GCCTAGAA | -0.0279
50 | CTATCCGA | 0.0404

Row | Sequence | PBM E-score
51 | CAGACTGG | -0.267
52 | CCACATCC | -0.183
53 | CAGGTGCG | 0.00443
54 | AGTCGTGC | -0.232
55 | AGGTCCCC | -0.198
56 | ATGTTAGC | 0.0396
57 | AGTTGCAC | -0.104
58 | TAGTTAGA | -0.0913
59 | ACTCAATC | -0.201
60 | ACGTTCGC | -0.0988
61 | TATGGACA | -0.18
62 | CCATGAAC | -0.1
63 | AGAACGGC | 0.203
64 | AATCAACG | -0.0873
65 | ACTGGCTC | -0.151
66 | AGGCGACA | -0.106
67 | ATACATTA | -0.248
68 | AGGTTCGG | 0.214
69 | GATATGGA | 0.208
70 | ATCCGTGG | 0.248
71 | AATCCGAA | 0.0775
72 | GCATTTCA | -0.00328
73 | CAGGGAAA | -0.16
74 | AAGCTGGC | -0.182
75 | AGACCGGC | 0.313

Row | Sequence | PBM E-score
76 | AATGTCCC | 0.166
77 | CACATCTA | -0.0912
78 | GTACCCAA | -0.235
79 | CAGAACCC | 0.0356
80 | CTGCCCTC | -0.235
81 | GACTAGTC | -0.117
82 | AGTATACC | 0.192
83 | GCGACCAC | -0.0722
84 | AGAACCGA | 0.319
85 | GGCACAAC | 0.015
86 | TGTTCCAA | -0.275
87 | CAAAGGTA | -0.0782
88 | CCTCACAC | -0.186
89 | ACTACTGC | -0.0129
90 | GTTCCTAA | 0.0467
91 | ACATTGAC | -0.0877
92 | CCAACTCA | -0.182
93 | GCATGAGA | -0.274
94 | CGAGCTCC | -0.119
95 | AGGGGTGA | -0.0425
96 | CAAACGGG | 0.284
97 | CTCGCTGA | -0.107
98 | CCGCAGCG | 0.268
99 | GAACCGTA | -0.0232
100 | GCGTAAAC | 0.218

Row | Sequence | PBM E-score
101 | ATAAAACG | 0.207
102 | ACTATCGA | -0.104
103 | ACTTTGGC | 0.108
104 | CCTTGGCC | -0.202
105 | CAACGCTC | -0.0813
106 | CAGAGGAG | -0.183
107 | AGTCGTAG | -0.232
108 | GCGTTTCC | 0.00369
109 | GCATATTA | 0.148
110 | AGCGTGAT | -0.0779
111 | GTACGTCA | -0.16
112 | TACAGGAA | -0.0329
113 | CTACCTTA | 0.0492
114 | ATGATTCG | 0.0529
115 | GAGTTCTA | 0.023
116 | ATTGGCCG | 0.0761
117 | CCTTTCAC | -0.0206
118 | CAGACGCC | 0.0387
119 | ATTTGCAG | -0.0362
120 | GCGTTCCA | -0.078
121 | CCGCCCAA | 0.216
122 | AGGCGAAG | -0.0229
123 | TATAATGA | -0.02
124 | CAGGAATC | -0.0969
125 | CGTATCCC | 0.176

Row | Sequence | PBM E-score
126 | AGAACCAG | -0.1
127 | CGCACCAG | 0.0585
128 | GGTTCAAA | 0.194
129 | ATTAAGTG | -0.0501
130 | GCGCCACC | -0.0492
131 | GCGCGGGA | 0.202
132 | ATTTCATC | -0.0899
133 | GCGTTACA | 0.107
134 | GCAGCAGA | -0.11
135 | ATCTGTGG | -0.104
136 | GCCCTGTA | -0.0393
137 | AGTACTTC | -0.0225
138 | ATAATCCG | 0.103
139 | GTTTTCTA | 0.12
140 | ATTCCGGA | 0.115
141 | GCAAAAAA | -0.0328
142 | GAAAAAGA | -0.168
143 | CAGGAGAA | -0.164
144 | AATCCGTG | 0.101
145 | CGTGCGGA | 0.126
146 | CTAGGTTC | -0.066
147 | GGTACACA | 0.229
148 | CACAGATG | -0.304
149 | ACACCGCG | 0.444
150 | GAACCGGC | 0.213

Row | Sequence | PBM E-score
151 | CCTTATCA | -0.174
152 | CCTGTGAG | -0.234
153 | ACCCAGAC | -0.0931
154 | ACATTCTC | -0.194
155 | GCCCATCC | -0.2
156 | AATCGGCT | 0.113
157 | CAAAGTTC | 0.0325
158 | CTTATTAA | 0.0392
159 | AGTATTCG | -0.0487
160 | CAGGGCAG | -0.252
161 | CATTGTGC | -0.16
162 | TACTAACA | -0.0879
163 | CGGCGGCC | 0.242
164 | TGGGGAAA | 0.0424
165 | CGGTCCTA | 0.448
166 | ACATTGCT | -0.206
167 | CTTGTTGA | -0.193
168 | AATTCTAA | 0.0654
169 | AAACATCG | 0.128
170 | CAGCATAA | 0.00965
171 | GGATTCAA | -0.101
172 | CCTAAATC | 0.189

From the supplement of paper PMC3334620
